# Source: the supplement of paper PMC8728848
# The other results are listed elsewhere or left out.
# Tests used:
# Assay in all cases: glycan array binding signal (z-score within array); higher = stronger binding
# Details in all cases: glycan notation: IUPAC condensed, linker removed
# [1] = biological target: Gal(b1-4)Glc6S
# How it was run: (§1)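 The Consortium for Functional Glycomics database supplied 3228 glycan arrays, of which those lacking an available protein sequence were dropped. The binding signal, a within-array Z-score, was averaged across arrays of the same protein sequence and across linkers. Negative scores can be read as non-binding.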
# [2] = biological target: Gal(b1-4)GlcNAc
# How it was run: as §1
# [3] = biological target: Gal(b1-4)GlcNAc(a1-6)Gal(b1-4)GlcNAc
# How it was run: as §1
# [4] = biological target: Gal(b1-4)GlcNAc(b1-2)Man
# How it was run: as §1
# [5] = biological target: Gal(b1-4)GlcNAc(b1-2)Man(a1-3)Man(b1-4)GlcNAc(b1-4)GlcNAc
# How it was run: as §1
# [6] = biological target: Gal(b1-4)GlcNAc(b1-2)Man(a1-3)[Gal(b1-4)GlcNAc(b1-2)Man(a1-6)]Man(b1-4)GlcNAc(b1-4)GlcNAc
# How it was run: as §1
# [7] = biological target: Gal(b1-4)GlcNAc(b1-2)Man(a1-3)[Gal(b1-4)GlcNAc(b1-2)Man(a1-6)]Man(b1-4)GlcNAc(b1-4)[Fuc(a1-6)]GlcNAc
# How it was run: as §1
# [8] = biological target: Gal(b1-4)GlcNAc(b1-2)Man(a1-3)[Gal(b1-4)GlcNAc(b1-2)Man(a1-6)][Gal(b1-4)GlcNAc(b1-4)]Man(b1-4)GlcNAc(b1-4)[Fuc(a1-6)]GlcNAc
# How it was run: as §1
# [9] = biological target: Gal(b1-4)GlcNAc(b1-2)Man(a1-3)[Gal(b1-4)GlcNAc(b1-2)Man(a1-6)][GlcNAc(b1-4)]Man(b1-4)GlcNAc(b1-4)[Fuc(a1-6)]GlcNAc
# How it was run: as §1
# [10] = biological target: Gal(b1-4)GlcNAc(b1-2)Man(a1-3)[GlcNAc(b1-2)Man(a1-6)]Man(b1-4)GlcNAc(b1-4)GlcNAc
# How it was run: as §1
# [11] = biological target: Gal(b1-4)GlcNAc(b1-2)Man(a1-3)[GlcNAc(b1-4)][Gal(b1-4)GlcNAc(b1-2)Man(a1-6)]Man(b1-4)GlcNAc(b1-4)GlcNAc
# How it was run: as §1
# [12] = biological target: Gal(b1-4)GlcNAc(b1-2)Man(a1-3)[Man(a1-6)]Man(b1-4)GlcNAc(b1-4)GlcNAc
# How it was run: as §1
# [13] = biological target: Gal(b1-4)GlcNAc(b1-2)Man(a1-6)Man(b1-4)GlcNAc(b1-4)GlcNAc
# How it was run: as §1
# [14] = biological target: Gal(b1-4)GlcNAc(b1-2)Man(a1-6)[GlcNAc(b1-2)Man(a1-3)]Man(b1-4)GlcNAc(b1-4)GlcNAc
# How it was run: as §1
# [15] = biological target: Gal(b1-4)GlcNAc(b1-2)Man(a1-6)[Man(a1-3)]Man(b1-4)GlcNAc(b1-4)GlcNAc
# How it was run: as §1
# [16] = biological target: Gal(b1-4)GlcNAc(b1-2)[Gal(b1-4)GlcNAc(b1-4)]Man(a1-3)[Gal(b1-4)GlcNAc(b1-2)Man(a1-6)]Man(b1-4)GlcNAc(b1-4)GlcNAc
# How it was run: as §1
# [17] = biological target: Gal(b1-4)GlcNAc(b1-2)[Gal(b1-4)GlcNAc(b1-4)]Man(a1-3)[Gal(b1-4)GlcNAc(b1-2)[Gal(b1-4)GlcNAc(b1-6)]Man(a1-6)]Man(b1-4)GlcNAc(b1-4)GlcNAc
# How it was run: as §1
# [18] = biological target: Gal(b1-4)GlcNAc(b1-2)[Gal(b1-4)GlcNAc(b1-4)]Man(a1-3)[GlcNAc(b1-4)][Gal(b1-4)GlcNAc(b1-2)Man(a1-6)]Man(b1-4)GlcNAc(b1-4)GlcNAc
# How it was run: as §1
# [19] = biological target: Gal(b1-4)GlcNAc(b1-2)[Gal(b1-4)GlcNAc(b1-4)]Man(a1-3)[GlcNAc(b1-4)][Gal(b1-4)GlcNAc(b1-2)[Gal(b1-4)GlcNAc(b1-6)]Man(a1-6)]Man(b1-4)GlcNAc(b1-4)GlcNAc
# How it was run: as §1
# [20] = biological target: Gal(b1-4)GlcNAc(b1-2)[Gal(b1-4)GlcNAc(b1-6)]Man(a1-6)[Gal(b1-4)GlcNAc(b1-2)Man(a1-3)]Man(b1-4)GlcNAc(b1-4)GlcNAc
# How it was run: as §1
# [21] = biological target: Gal(b1-4)GlcNAc(b1-2)[Gal(b1-4)GlcNAc(b1-6)]Man(a1-6)[Gal(b1-4)GlcNAc(b1-2)Man(a1-3)]Man(b1-4)GlcNAc(b1-4)[Fuc(a1-6)]GlcNAc
# How it was run: as §1
# [22] = biological target: Gal(b1-4)GlcNAc(b1-2)[Gal(b1-4)GlcNAc(b1-6)]Man(a1-6)[GlcNAc(b1-4)][Gal(b1-4)GlcNAc(b1-2)Man(a1-3)]Man(b1-4)GlcNAc(b1-4)GlcNAc
# How it was run: as §1
binder,measurement,setting,value
Clrb (Mus musculus) (protein) ITGATKTEQIPVNKTYAACPQNWIGVENKCFYFSEYPSNWTFAQAFCMAQEAQLARFDNQDELNFLMRYKANFDSWIGLHRESSEHPWKWTDNTEYNNTIPIRGEERFAYLNNNGISSTRIYSLRMWICSKLNSYSLHCQTPFFPSGTKHHHHHHHHG,glycan array binding signal (z-score),[1],-0.22
same,glycan array binding signal (z-score),[2],-0.146
same,glycan array binding signal (z-score),[3],-0.238
same,glycan array binding signal (z-score),[4],-0.222
same,glycan array binding signal (z-score),[5],-0.355
same,glycan array binding signal (z-score),[6],-0.431
same,glycan array binding signal (z-score),[7],-0.343
same,glycan array binding signal (z-score),[8],-0.193
same,glycan array binding signal (z-score),[9],-0.016
same,glycan array binding signal (z-score),[10],-0.459
same,glycan array binding signal (z-score),[11],-0.33
same,glycan array binding signal (z-score),[12],-0.264
same,glycan array binding signal (z-score),[13],-0.484
same,glycan array binding signal (z-score),[14],-0.496
same,glycan array binding signal (z-score),[15],-0.431
same,glycan array binding signal (z-score),[16],-0.432
same,glycan array binding signal (z-score),[17],-0.42
same,glycan array binding signal (z-score),[18],-0.452
same,glycan array binding signal (z-score),[19],-0.315
same,glycan array binding signal (z-score),[20],-0.184
same,glycan array binding signal (z-score),[21],-0.339
same,glycan array binding signal (z-score),[22],-0.157
